Test results published in PubChem BioAssay AID488969 (Vanderbilt High Throughput Screening Facility, 2010).
Over roughly 110,000 compounds, “z-score” has its median near -0.1; the highest 2% begin near 2. The list shows a part of the results. The source made the active and inactive calls.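 Rule for the calls: active = z-score in the third read window above 3 or below -3; inactive = the rest.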

Molecular target: Metabotropic glutamate receptor 8 (Rattus norvegicus) (UniProt P70579)
Experiment: mGluR8 Gi/Go-coupled signaling modulation – cell-based, rat, thallium flux, HTS, primary screen (AID 488969)
Settings: HEK293 rat mGluR8, GIRK (G protein-gated inwardly rectifying potassium channel) thallium flux, FluoZin2; at 10 µM; stronger effect = higher value; submaximal glutamate (EC20) added with thallium

UniProt P70579, sequence (P70579 whole entry, looked up): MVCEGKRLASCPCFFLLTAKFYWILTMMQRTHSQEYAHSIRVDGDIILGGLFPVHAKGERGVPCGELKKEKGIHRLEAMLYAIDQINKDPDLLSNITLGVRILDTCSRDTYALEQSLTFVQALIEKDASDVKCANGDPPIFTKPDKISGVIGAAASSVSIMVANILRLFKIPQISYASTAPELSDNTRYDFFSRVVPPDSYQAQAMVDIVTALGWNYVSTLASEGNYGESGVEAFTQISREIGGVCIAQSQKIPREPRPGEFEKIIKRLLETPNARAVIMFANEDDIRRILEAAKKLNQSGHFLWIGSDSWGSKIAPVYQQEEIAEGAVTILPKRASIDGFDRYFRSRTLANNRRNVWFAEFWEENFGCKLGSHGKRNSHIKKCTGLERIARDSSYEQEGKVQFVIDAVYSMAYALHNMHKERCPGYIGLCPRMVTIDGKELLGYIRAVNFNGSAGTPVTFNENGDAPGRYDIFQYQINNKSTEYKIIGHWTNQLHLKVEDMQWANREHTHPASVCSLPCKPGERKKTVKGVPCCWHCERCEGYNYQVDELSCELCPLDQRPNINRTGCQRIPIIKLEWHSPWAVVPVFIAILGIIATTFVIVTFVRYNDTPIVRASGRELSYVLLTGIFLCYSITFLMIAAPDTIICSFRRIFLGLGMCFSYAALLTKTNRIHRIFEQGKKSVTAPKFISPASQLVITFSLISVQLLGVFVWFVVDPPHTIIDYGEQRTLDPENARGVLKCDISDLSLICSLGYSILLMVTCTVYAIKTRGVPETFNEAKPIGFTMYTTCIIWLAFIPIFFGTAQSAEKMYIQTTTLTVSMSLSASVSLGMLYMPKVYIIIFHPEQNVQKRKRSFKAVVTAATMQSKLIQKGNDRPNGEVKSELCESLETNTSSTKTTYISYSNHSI

SMILES | z-score
CCOC(=O)COc1ccc(S(=O)(=O)c2ccc(OCC(=O)OCC)cc2)cc1 | -0.387
COC(=O)CC1SC(=O)NC1=Nc1ccc(OC)cc1 (stereo unspecified) | -0.0377
CCOC(=O)C(CC)Sc1nc2c(cnn2-c2ccccc2)c(=O)[nH]1 (stereo unspecified) | -0.956
Cc1ccc(OC(=O)Cn2c(C(F)(F)F)nc3ccccc32)cc1 | -0.104
Cc1nn(C)cc1/C=C/C(=O)c1ccccc1 | -0.137
CCOc1ccc(CC(=O)Nc2ccc(S(=O)(=O)Nc3cc(C)on3)cc2)cc1OCC | -0.243
CCOc1ccc(C2=C(C=C(C#N)C#N)C(c3ccccc3)c3ccccc3O2)cc1 (stereo unspecified) | -0.552
Cc1noc(/C=C/N(C)C)c1S(=O)(=O)N1CCCC(C(=O)N2CCCCC2)C1 (stereo unspecified) | -0.0325
COc1cc2c(cc1OC)C1=NC(=O)CN1C(SCc1ccc(C)cc1)=N2 | -0.0474
COC(=O)CC1Oc2ccc(C)cc2NC1=O (stereo unspecified) | -0.352
CCCCNC(=O)NNC(=O)COc1cccc(C)c1C | -0.318
Cc1nc2ncnn2c(Nc2ccc3c(c2)OCCO3)c1C | -0.101
CC(NC(=O)C1CCCO1)c1ccccc1 (stereo unspecified) | -0.283
O=C1C2CC=C(Cl)CC2C(=O)N1CCc1ccccc1 (stereo unspecified) | -0.115
COc1ccccc1C(c1nnnn1C(C)(C)C)N1CCN(C(=O)c2ccco2)CC1 (stereo unspecified) | -0.115
Cc1nnc(NC(=O)c2cccc(S(=O)(=O)N3CC(c4ccccc4)CC3=O)c2)s1 (stereo unspecified) | -0.712
CN(Cc1nc(-c2cccnc2)no1)S(=O)(=O)c1ccccc1 | 0.141
COc1ccc(NC(=O)CC2C(=O)N(c3ccc(OC)cc3)C(=O)N2C(C)C)cc1 (stereo unspecified) | 0.0999
O=C(c1cnc(-c2ccccc2)s1)c1ccc(Cl)cc1Cl | -0.278

SMILES | z-score
O=C(Cc1ccccc1)Nc1ccc2oc(-c3cccnc3)nc2c1 | 0.0373
Cc1ccc2nc(NCc3ccco3)c(C=NCc3ccco3)c(=O)n2c1 | 0.874
Cc1nc(=O)c(-c2ccccc2)c(C)n1-c1ccccc1C(=O)O | 0.579
O=C(Nc1ccc(Cl)cc1)N(Cc1nnc2n1CCCCC2)c1ccccc1 | -0.211
CCC(=O)N1c2ccc(S(=O)(=O)CCC(=O)NCc3ccc4c(c3)OCO4)cc2CC1C (stereo unspecified) | -0.0251
CCCc1cc(-c2n[nH]c(=S)n2Cc2ccccc2)cs1 | active: 4.6
O=C(NCCc1ccccn1)c1cccc(S(=O)(=O)N2CCCCCC2)c1 | -0.13
CCOC(=O)N1CCN(c2ncnc3c2[nH]c2ccc(F)cc23)CC1 | 0.0532
O=C(CN1C(=O)NC2(CCCCCC2)C1=O)Nc1ccc(S(=O)(=O)N2CCOCC2)cc1 | -0.0939
Cc1[nH]nc(SCC(=O)NC(C)c2ccccc2)c1[N+](=O)[O-] (stereo unspecified) | -0.0398
O=C(CCS(=O)(=O)Cc1ccccc1)NCC1CCCO1 (stereo unspecified) | 0.391
CCOc1ccc2ccccc2c1CNCCN1CCOCC1 | 0.105
Cc1[nH]c2ccccc2c1C(=O)C(=O)NCCC1=CCCCC1 | 0.506
Clc1ccc2nc(C3CCN(Cc4nnnn4C4CCCCC4)CC3)[nH]c2c1 | -0.461
COc1ccc(N2C(=O)CC2(C#N)c2ccc(OCc3ccccc3)cc2)cc1 (stereo unspecified) | -0.272
COc1cccc(C(=O)Nc2ccc(C)cc2)c1 | 0.174
COc1cccc(CN(C)CC(=O)Nc2cc3oc4ccccc4c3cc2OC)c1 | 0.0498
O=C(O)CCCN=C1NC2(CCCC2)Cc2ccccc21 | 0.256
Cc1cc(-c2ccc(Cl)cc2)oc(=O)c1NC(=O)c1ccccc1 | -0.0434

SMILES | z-score
COc1ccc(S(=O)(=O)n2ccc(C)n2)cc1C | -0.988
CCCCCCCCS(=O)c1sc2nc3c(cc2c1N)CCCC3 (stereo unspecified) | -0.0105
Cc1ccc(CCNC(=O)CN2CCN(Cc3ccccc3F)C2=O)cc1 | 0.229
O=C(/C=N/O)NCC1CCNCC1 | -0.961
COc1ccc(OC)c(NC(=O)COc2ccc(S(=O)(=O)NC(C)C)cc2)c1 | -0.207
O=C(NC(NC(=S)Nc1ccccc1C(=O)O)C(Cl)(Cl)Cl)c1ccco1 (stereo unspecified) | -0.106
Cc1onc(-c2ccccc2Cl)c1C(=O)Nc1ccc(OCC(=O)N2CCOCC2)cc1 | -0.0377
CCc1nnc(NC(=O)c2c(C)nn(-c3ccccc3)c2Cl)s1 | -0.322
O=C(NCc1ccco1)Nc1ccc2nsnc2c1 | -0.135
O=C(NC(=S)N1CCOCC1)C12CC3CCC(CC(C3)C1)C2 | 0.454
Cc1ccc(N(CC(=O)NCc2ccc(F)cc2)S(=O)(=O)c2cccs2)cc1 | -0.42
N#CC(C(=O)NC1CCCCC1)c1nc2ccccc2nc1N1CCN(c2ccccc2F)CC1 (stereo unspecified) | 0.0655
O=C(NCCCN1CCN(CCCNC(=O)c2ccc3c(c2)OCO3)CC1)c1ccc2c(c1)OCO2 | -0.448
O=C(CSCc1ccc(Cl)cc1)Nc1nccs1 | -0.765
COc1ccc(CC(=O)O/N=C(\N)Cc2cccc3ccccc23)cc1OC | -0.317
CC(C)NC(=S)Nc1ccc(Oc2ccccc2)cc1 | 1.68
CCOC(=O)CSc1nc2ccc(NC(=O)CSc3nnnn3Cc3ccccc3)cc2s1 | 1.23
CCOC(=O)c1cc2c(=O)n3cccc(C)c3nc2n(Cc2ccco2)c1=NC(=O)c1ccccc1 | -0.217
